# Assay results from publication PMC9911399, “Two distinct binding modes provide the RNA-binding protein RbFox with extraordinary sequence specificity”.
# Numbering of substitutions follows the chain as printed; changes in the protein carry UniProt numbers. This is one part of the list.
# T1: RBFOX1 RRM RbFoxmut (Fox-RRM*) (Homo sapiens, UniProt Q9NWB1 109-208, R118D;E147R;N151S;E152T)
# T1 sequence: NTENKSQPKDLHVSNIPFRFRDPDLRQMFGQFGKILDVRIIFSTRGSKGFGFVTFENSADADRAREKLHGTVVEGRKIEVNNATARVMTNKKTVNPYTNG
# B1: UGCAACA (DNA:RNA)
# RNA: GGGAGACCGGAAUUCAGAUUGUCCUGCAACAUUAAAUCCCGUCGUAGCCACCA
# DNA 1: CAATCTGAATTCCGGTCTCCC
# DNA 2: TGGTGGCTACGACGGGATT
# B2: CUACUAU (DNA:RNA)
# RNA: GGGAGACCGGAAUUCAGAUUGUCCCUACUAUUUAAAUCCCGUCGUAGCCACCA
# DNA 1: CAATCTGAATTCCGGTCTCCC
# DNA 2: TGGTGGCTACGACGGGATT
# B3: ACUAUUG (DNA:RNA)
# RNA: B2 RNA with C25A, U26C, A27U, C28A, A30U, U31G
# DNA 1: CAATCTGAATTCCGGTCTCCC
# DNA 2: TGGTGGCTACGACGGGATT
# B4: AAGAUCA (DNA:RNA)
# RNA: B1 RNA with U25A, G26A, C27G, A29U
# DNA 1: CAATCTGAATTCCGGTCTCCC
# DNA 2: TGGTGGCTACGACGGGATT
# B5: AUACCCC (DNA:RNA)
# RNA: B2 RNA with C25A, U29C, A30C, U31C
# DNA 1: CAATCTGAATTCCGGTCTCCC
# DNA 2: TGGTGGCTACGACGGGATT
# B6: GAGAGUA (DNA:RNA)
# RNA: B1 RNA with U25G, G26A, C27G, A29G, C30U
# DNA 1: CAATCTGAATTCCGGTCTCCC
# DNA 2: TGGTGGCTACGACGGGATT
# B7: CCCGUGC (DNA:RNA)
# RNA: B2 RNA with U26C, A27C, C28G, A30G, U31C
# DNA 1: CAATCTGAATTCCGGTCTCCC
# DNA 2: TGGTGGCTACGACGGGATT
# B8: AGCAACA (DNA:RNA)
# RNA: B1 RNA with U25A
# DNA 1: CAATCTGAATTCCGGTCTCCC
# DNA 2: TGGTGGCTACGACGGGATT
# B9: GGGGCCA (DNA:RNA)
# RNA: B1 RNA with U25G, C27G, A28G, A29C
# DNA 1: CAATCTGAATTCCGGTCTCCC
# DNA 2: TGGTGGCTACGACGGGATT
# B10: GAGACCA (DNA:RNA)
# RNA: B1 RNA with U25G, G26A, C27G, A29C
# DNA 1: CAATCTGAATTCCGGTCTCCC
# DNA 2: TGGTGGCTACGACGGGATT
# B11: UCCCAAU (DNA:RNA)
# RNA: B2 RNA with C25U, U26C, A27C, U29A
# DNA 1: CAATCTGAATTCCGGTCTCCC
# DNA 2: TGGTGGCTACGACGGGATT
# B12: GCUGAGA (DNA:RNA)
# RNA: B1 RNA with U25G, G26C, C27U, A28G, C30G
# DNA 1: CAATCTGAATTCCGGTCTCCC
# DNA 2: TGGTGGCTACGACGGGATT
# B13: UAGGAGG (DNA:RNA)
# RNA: B1 RNA with G26A, C27G, A28G, C30G, A31G
# DNA 1: CAATCTGAATTCCGGTCTCCC
# DNA 2: TGGTGGCTACGACGGGATT
# B14: GUGUGGA (DNA:RNA)
# RNA: B2 RNA with C25G, A27G, C28U, U29G, A30G, U31A
# DNA 1: CAATCTGAATTCCGGTCTCCC
# DNA 2: TGGTGGCTACGACGGGATT
# B15: AUUCUAC (DNA:RNA)
# RNA: B2 RNA with C25A, A27U, U31C
# DNA 1: CAATCTGAATTCCGGTCTCCC
# DNA 2: TGGTGGCTACGACGGGATT
# B16: UAGCUCA (DNA:RNA)
# RNA: B1 RNA with G26A, C27G, A28C, A29U
# DNA 1: CAATCTGAATTCCGGTCTCCC
# DNA 2: TGGTGGCTACGACGGGATT
# B17: AAAGAGC (DNA:RNA)
# RNA: B2 RNA with C25A, U26A, C28G, U29A, A30G, U31C
# DNA 1: CAATCTGAATTCCGGTCTCCC
# DNA 2: TGGTGGCTACGACGGGATT
# B18: CGAAGUA (DNA:RNA)
# RNA: B1 RNA with U25C, C27A, A29G, C30U
# DNA 1: CAATCTGAATTCCGGTCTCCC
# DNA 2: TGGTGGCTACGACGGGATT
# B19: AACAAGC (DNA:RNA)
# RNA: B1 RNA with U25A, G26A, C30G, A31C
# DNA 1: CAATCTGAATTCCGGTCTCCC
# DNA 2: TGGTGGCTACGACGGGATT
# B20: AUGGUUG (DNA:RNA)
# RNA: B2 RNA with C25A, A27G, C28G, A30U, U31G
# DNA 1: CAATCTGAATTCCGGTCTCCC
# DNA 2: TGGTGGCTACGACGGGATT
# B21: UCUGACC (DNA:RNA)
# RNA: B1 RNA with G26C, C27U, A28G, A31C
# DNA 1: CAATCTGAATTCCGGTCTCCC
# DNA 2: TGGTGGCTACGACGGGATT
# B22: UUUCCAA (DNA:RNA)
# RNA: B2 RNA with C25U, A27U, U29C, U31A
# DNA 1: CAATCTGAATTCCGGTCTCCC
# DNA 2: TGGTGGCTACGACGGGATT
# B23: AUUAAAU (DNA:RNA)
# RNA: B2 RNA with C25A, A27U, C28A, U29A
# DNA 1: CAATCTGAATTCCGGTCTCCC
# DNA 2: TGGTGGCTACGACGGGATT
# B24: GACCGAG (DNA:RNA)
# RNA: B2 RNA with C25G, U26A, A27C, U29G, U31G
# DNA 1: CAATCTGAATTCCGGTCTCCC
# DNA 2: TGGTGGCTACGACGGGATT
# B25: AAUUAGA (DNA:RNA)
# RNA: B1 RNA with U25A, G26A, C27U, A28U, C30G
# DNA 1: CAATCTGAATTCCGGTCTCCC
# DNA 2: TGGTGGCTACGACGGGATT
# B26: CGGAAUG (DNA:RNA)
# RNA: B1 RNA with U25C, C27G, C30U, A31G
# DNA 1: CAATCTGAATTCCGGTCTCCC
# DNA 2: TGGTGGCTACGACGGGATT
# B27: GAGCCGA (DNA:RNA)
# RNA: B2 RNA with C25G, U26A, A27G, U29C, A30G, U31A
# DNA 1: CAATCTGAATTCCGGTCTCCC
# DNA 2: TGGTGGCTACGACGGGATT
# B28: UCACGUG (DNA:RNA)
# RNA: B2 RNA with C25U, U26C, U29G, A30U, U31G
# DNA 1: CAATCTGAATTCCGGTCTCCC
# DNA 2: TGGTGGCTACGACGGGATT
# B29: GCCCACG (DNA:RNA)
# RNA: B1 RNA with U25G, G26C, A28C, A31G
# DNA 1: CAATCTGAATTCCGGTCTCCC
# DNA 2: TGGTGGCTACGACGGGATT
# B30: GUACUGU (DNA:RNA)
# RNA: B2 RNA with C25G, A30G
# DNA 1: CAATCTGAATTCCGGTCTCCC
# DNA 2: TGGTGGCTACGACGGGATT
# B31: UCUGCUU (DNA:RNA)
# RNA: B2 RNA with C25U, U26C, A27U, C28G, U29C, A30U
# DNA 1: CAATCTGAATTCCGGTCTCCC
# DNA 2: TGGTGGCTACGACGGGATT
# Biological target: T1, RBFOX1 RRM RbFoxmut (Fox-RRM*)
# Assay: EMSA; HiTS-Eq, 1 nM pool, 10 min; buffer printed only for the single-RNA assays: 10 mM Tris pH 7.5, 150 mM NaCl, 3.4 mM EDTA, 0.001% NP-40, 30 C
# Details: tags: His6 N-terminal (pET28a); label: 5' 32P
# Procedure, shortened: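 Purified RbFox RRM, wild type or mutant, was incubated for 10 min in 50 µL with 1 nM of a 5′-radiolabelled RNA pool carrying 7 randomized nucleotides, whose flanks were annealed to DNA oligonucleotides, over a series of increasing protein concentrations. Unbound RNA was resolved on 8% native PAGE, cut out, reverse-transcribed, barcoded by PCR and sequenced on an Illumina HiSeq 2500. Relative association constants were derived from changes in read counts for each RNA species versus the control reaction and normalised to the cognate motif.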
row,Binder,binding signal
1,B1,0.106 KA relative to UGCAUGU
2,B2,0.0859 KA relative to UGCAUGU
3,B3,0.149 KA relative to UGCAUGU
4,B4,0.081 KA relative to UGCAUGU
5,B5,0.0789 KA relative to UGCAUGU
6,B6,0.143 KA relative to UGCAUGU
7,B7,0.108 KA relative to UGCAUGU
8,B8,0.081 KA relative to UGCAUGU
9,B9,0.101 KA relative to UGCAUGU
10,B10,0.0628 KA relative to UGCAUGU
11,B11,0.102 KA relative to UGCAUGU
12,B12,0.0905 KA relative to UGCAUGU
13,B13,0.102 KA relative to UGCAUGU
14,B14,0.094 KA relative to UGCAUGU
15,B15,0.12 KA relative to UGCAUGU
16,B16,0.108 KA relative to UGCAUGU

row,Binder,binding signal
1,B17,0.071 KA relative to UGCAUGU
2,B18,0.153 KA relative to UGCAUGU
3,B19,0.0353 KA relative to UGCAUGU
4,B20,0.48 KA relative to UGCAUGU
5,B21,0.0992 KA relative to UGCAUGU
6,B22,0.0765 KA relative to UGCAUGU
7,B23,0.095 KA relative to UGCAUGU
8,B24,0.141 KA relative to UGCAUGU
9,B25,0.0645 KA relative to UGCAUGU
10,B26,1.43 KA relative to UGCAUGU
11,B27,0.0733 KA relative to UGCAUGU
12,B28,0.128 KA relative to UGCAUGU
13,B29,0.108 KA relative to UGCAUGU
14,B30,0.134 KA relative to UGCAUGU
15,B31,0.0935 KA relative to UGCAUGU
